# Results: PubChem BioAssay (NCATS)
# Where “and” joins values, the source holds several entries; their conditions need not be identical. Identical values can stand only once. The inconclusive results got no clear call from the source; some entries with a clear call stand among them for comparison. For some of these results: A potency beside an inconclusive call is a rough fit, not a confirmed value. Calls of active or inactive are those of the source. The call rests on the fitted dose curve; in most records, active means well fitted curve in the direction sought with a large enough effect; inconclusive means small, poorly fitted or top-dose-only effect, or another doubt; inactive means no such curve, though single readings can be large; an effect the other way counts as inactive or inconclusive.
# Key:
# [1] = qHTS of pediatric cancer cell lines to identify multiple opportunities for drug repurposing: Primary screen for RD cells (AID 1347104); further: nearly all actives have a fitted effect of over 55% in size; further: potency means the concentration at half of the fitted maximal effect
# Summary of the method: (§1)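 Quantitative HTS format: each compound titrated (MIPE 11 points from 0.78 nM, NPC 8 points from 0.59 nM) onto cells plated 5 hours earlier. After 48 h at 37 degrees C, CellTiter-Glo luminescence was recorded.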
# [2] = qHTS of pediatric cancer cell lines to identify multiple opportunities for drug repurposing: Primary screen for OHS-50 cells (AID 1347103); further: nearly all actives have a fitted effect of over 40% in size
# Summary of the method: (§2)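 Cells (500-1,000/well) rested 5 h, then received compounds for 48 h; metabolically active cells were measured by CellTiter-Glo luminescence. Final concentrations spanned up to 46 µM (MIPE, 11-point) or 0.59 nM-46 µM (NPC, 8-point) in primary screens, 11-point in follow-ups.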
# [3] = qHTS of pediatric cancer cell lines to identify multiple opportunities for drug repurposing: Primary screen for Rh41 cells (AID 1347108); further: nearly all actives have a fitted effect of over 70% in size; further: potency means the concentration at half of the fitted maximal effect
# Summary of the method: as §1
# [4] = qHTS of pediatric cancer cell lines to identify multiple opportunities for drug repurposing: Primary screen for MG 63 (6-TG R) cells (AID 1347105); details: MG 63 (6-TG R) viability, CellTiter-Glo, 48 h; series mostly up to 46 µM; further: potency means the concentration at half of the fitted maximal effect; nearly all actives have a fitted effect of over 50% in size
# Summary of the method: as §1
# [5] = qHTS of pediatric cancer cell lines to identify multiple opportunities for drug repurposing: Primary screen for Rh30 cells (AID 1347107); further: nearly all actives have a fitted effect of over 75% in size; further: potency means the concentration at half of the fitted maximal effect
# Summary of the method: as §2
# [6] = qHTS of pediatric cancer cell lines to identify multiple opportunities for drug repurposing: Primary screen for control Hh wild type fibroblast cells (AID 1347106); further: potency means the concentration at half of the fitted maximal effect; nearly all actives have a fitted effect of over 55% in size
# Summary of the method: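 Viability after 48 h compound treatment at 37C, 500-1,000 cells/well, read as ATP luminescence with CellTiter-Glo. Primary screens used 11-point (MIPE, 0.78 nM-46 µM) or 8-point (NPC, 0.59 nM-46 µM) final concentrations; follow-up screens used 11-point dilutions.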
# [7] = qHTS of pediatric cancer cell lines to identify multiple opportunities for drug repurposing: Confirmatory screen for NB1643 cells (AID 1347109); further: potency means the concentration at half of the fitted maximal effect; nearly all actives have a fitted effect of over 45% in size
# Summary of the method: as §2
# [8] = qHTS of pediatric cancer cell lines to identify multiple opportunities for drug repurposing: Confirmatory screen for A673 cells (AID 1347110);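 further: potency means the concentration at half of the fitted maximal effect; cells exposed to compound for 48 h before the viability read; nearly all actives have a fitted effect of over 65% in size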
# Summary of the method: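 Forty-eight-hour viability assay. Follow-up compounds ran at 11-point dilutions; positive control bortezomib at 2.3 uM final, neutral control DMSO.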
# [9] = qHTS of pediatric cancer cell lines to identify multiple opportunities for drug repurposing: Confirmatory screen for SK-N-MC cells (AID 1347111);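 further: potency means the concentration at half of the fitted maximal effect; cells exposed to compound for 48 h before the readout; nearly all actives have a fitted effect of over 70% in size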
# Summary of the method: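 Seed 500-1,000 cells/well; rest 5 h at 37 degrees C. Pin-transfer compounds, 11-point titration. Incubate 48 h. Add CellTiter-Glo, 15 min RT, read luminescence.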
# Tags describe the fitted curve by direction and shape.
smiles,measurement,setting,value
O=C1C[C@@H](c2ccc(O)cc2)Oc2cc(O)cc(O)c21,Potency,[1],inactive
O=C(CCN1CCN(CCO)CC1)N1c2ccccc2Sc2ccc(C(F)(F)F)cc21,Potency,[2],inactive
same,Potency,[3],inactive
CN1Cc2cc(C(=O)N3CCC(C4CCNCC4)CC3)ccc2N[C@@H](CC(=O)O)C1=O,Potency,[1],inactive
CN(C)c1ccc2cc(C(=O)N[C@@H](CCCN=C(N)CCl)C(=O)NCc3ccccc3)ccc2c1,Potency,[1],active: 13.2 µM
same,Potency,[4],"inconclusive: 37.2 µM [cytotoxic, single point]"
same,Potency,[5],active: 4.69 µM
same,Potency,[3],active: 14.8 µM
CC[C@]1(O)C[C@H]2CN(CCc3c([nH]c4ccccc34)[C@@](C(=O)OC)(c3cc4c(cc3OC)N(C=O)[C@H]3[C@@](O)(C(=O)OC)[C@H](OC(C)=O)[C@]5(CC)C=CCN6CC[C@]43[C@@H]65)C2)C1,Potency,[1],"inconclusive: 7.4 nM [cytotoxic, full curve] and inconclusive: 6 nM [cytotoxic, full curve]"
same,Potency,[4],"inconclusive: 0.059 µM [cytotoxic, full curve]"
same,Potency,[6],"inconclusive: 0.0132 µM [cytotoxic, full curve]"
same,Potency,[3],"inconclusive: 0.0148 µM [cytotoxic, full curve]"
same,Potency,[7],active: 10.4 nM and active: 1.04 µM
Nc1ccc(S(=O)(=O)c2ccc(N)cc2)cc1,Potency,[1],inactive
Nc1nc(F)nc2c1ncn2[C@@H]1O[C@H](COP(=O)(O)O)[C@@H](O)[C@H]1O,Potency,[1],"inconclusive: 5.9 µM [cytotoxic, partial curve]"
same,Potency,[4],active: 0.469 µM
same,Potency,[6],"inconclusive: 16.6 µM [cytotoxic, partial curve]"
same,Potency,[5],"inconclusive: 4.18 µM [cytotoxic, partial curve, poor fit]"
CC(C)(C)c1nnc(NS(=O)(=O)c2ccc(N)cc2)s1,Potency,[1],inactive
Cc1ccc(C)c(OCCCC(C)(C)C(=O)O)c1,Potency,[1],"inconclusive: 41.8 µM [cytotoxic, single point]"
same,Potency,[4],"inconclusive: 37.2 µM [cytotoxic, single point]"
same,Potency,[6],"inconclusive: 11.8 µM [cytotoxic, partial curve]"
same,Potency,[5],"inconclusive: 33.2 µM [cytotoxic, single point]"
same,Potency,[3],"inconclusive: 33.2 µM [cytotoxic, single point]"
S=c1[nH]c2ccccc2s1,Potency,[1],"inconclusive: 48.6 µM [cytotoxic, single point]"
CCCNC(C)C(=O)Nc1ccccc1C (stereo not drawn),Potency,[2],inactive
same,Potency,[3],inactive
COCCOC(=O)C1=C(C)NC(C)=C(C(=O)OC/C=C/c2ccccc2)C1c1cccc([N+](=O)[O-])c1 (stereo not drawn),Potency,[1],"inconclusive: 26.6 µM [cytotoxic, single point]"
same,Potency,[4],"inconclusive: 8.41 µM [cytotoxic, partial curve]"
same,Potency,[3],"inconclusive: 15 µM [cytotoxic, single point]"
CC(C(=O)O)c1ccc(C(=O)c2ccccc2)s1 (stereo not drawn),Potency,[1],inactive
same,Potency,[4],"inconclusive: 6.68 µM [cytotoxic, partial curve, poor fit]"
same,Potency,[5],inactive
CCCCc1ccc2nc(NC(=O)OC)[nH]c2c1,Potency,[1],"inconclusive: 10.5 nM [cytotoxic, full curve] and inconclusive: 23.7 nM [cytotoxic, full curve, poor fit]"
same,Potency,[4],"inconclusive: 9.3 nM [cytotoxic, full curve, poor fit] and inconclusive: 26.6 nM [cytotoxic, full curve, poor fit]"
same,Potency,[6],"inconclusive: 118 nM [cytotoxic, full curve, poor fit] and inconclusive: 299 nM [cytotoxic, full curve, poor fit]"
same,Potency,[3],"inconclusive: 16.6 nM [cytotoxic, full curve] and inconclusive: 42.2 nM [cytotoxic, full curve]"
same,Potency,[8],active: 0.329 µM
CCCCCCCCCCCCOCCOCCOCCOCCOCCOCCOCCOCCOCCO,Potency,[1],"inconclusive: 13.3 µM [cytotoxic, partial curve]"
same,Potency,[4],"inconclusive: 26.6 µM [cytotoxic, single point]"
same,Potency,[3],"inconclusive: 9.44 µM [cytotoxic, partial curve, poor fit]"
same,Potency,[8],"inconclusive: 18.5 µM [cytotoxic, partial curve]"
same,Potency,[9],"inconclusive: 26.1 µM [cytotoxic, single point]"
